Source: article PMC4336329 (PLoS ONE, 2015)
Screen size: about 310,000 compounds; about 2,200 (0.71%) showed an effect of 50% or more. Effects have a minus sign here. This is one part of the list.

The compounds below were run against human ether-à-go-go-related gene (hERG) potassium channel (human, UniProt Q12809) (assay: primary screen, population patch clamp on CHO cells stably expressing hERG).
Chain of human ether-à-go-go-related gene (hERG) potassium channel (Q12809 whole entry, looked up): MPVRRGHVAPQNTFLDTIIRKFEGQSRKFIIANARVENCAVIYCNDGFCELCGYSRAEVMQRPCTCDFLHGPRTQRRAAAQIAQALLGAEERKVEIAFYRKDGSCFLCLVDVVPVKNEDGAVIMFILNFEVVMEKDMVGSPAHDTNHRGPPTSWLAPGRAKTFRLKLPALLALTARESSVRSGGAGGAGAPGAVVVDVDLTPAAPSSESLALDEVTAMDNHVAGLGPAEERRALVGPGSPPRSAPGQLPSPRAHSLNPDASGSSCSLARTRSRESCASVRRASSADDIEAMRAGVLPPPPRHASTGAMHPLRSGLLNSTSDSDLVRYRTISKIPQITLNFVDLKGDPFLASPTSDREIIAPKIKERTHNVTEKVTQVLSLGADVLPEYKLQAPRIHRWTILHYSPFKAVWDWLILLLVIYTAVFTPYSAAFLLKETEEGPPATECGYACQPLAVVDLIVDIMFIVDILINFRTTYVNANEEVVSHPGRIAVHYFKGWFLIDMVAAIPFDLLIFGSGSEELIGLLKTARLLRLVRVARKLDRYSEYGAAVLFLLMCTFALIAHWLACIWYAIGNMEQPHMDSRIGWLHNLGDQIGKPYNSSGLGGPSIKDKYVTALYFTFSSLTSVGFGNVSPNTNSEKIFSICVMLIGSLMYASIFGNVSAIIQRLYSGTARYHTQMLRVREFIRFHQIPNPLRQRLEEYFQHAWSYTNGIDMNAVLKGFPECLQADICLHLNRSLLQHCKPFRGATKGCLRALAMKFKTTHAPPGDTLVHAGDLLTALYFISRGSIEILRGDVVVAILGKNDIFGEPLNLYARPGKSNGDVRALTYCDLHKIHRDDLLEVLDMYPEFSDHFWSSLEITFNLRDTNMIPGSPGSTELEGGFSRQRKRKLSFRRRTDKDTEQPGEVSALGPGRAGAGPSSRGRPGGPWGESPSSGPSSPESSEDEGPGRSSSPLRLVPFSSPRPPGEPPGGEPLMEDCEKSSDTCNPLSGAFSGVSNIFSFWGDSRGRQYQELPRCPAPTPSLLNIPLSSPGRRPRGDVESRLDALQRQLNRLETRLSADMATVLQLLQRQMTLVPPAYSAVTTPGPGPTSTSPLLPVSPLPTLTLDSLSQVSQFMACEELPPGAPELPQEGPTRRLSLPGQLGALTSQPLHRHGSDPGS

SMILES	hERG current change (%, negative = inhibition) at 1uM [%]
CCn1cc(S(=O)(=O)Nc2ccccc2C(F)(F)F)cn1	13.9
COc1cc(OC)cc(C(=O)Nc2nc(CC(=O)NC(C)c3ccccc3)cs2)c1 (centres unmarked)	10.1
CC(C)c1csc2nc3n(c(=O)c12)CCCCC3	3.82
CCC/C=N/NC(=O)c1cc(Br)ccc1O	6.84
Cc1nc2ccccn2c1CN(C)C(=O)C1CCC(=O)N(Cc2cccc(F)c2)C1 (centres unmarked)	-58
O=C1CC(N(Cc2ccco2)C(=O)Nc2ccc(F)cc2)C(=O)N1c1ccc(F)cc1 (centres unmarked)	11.2
CC(C)(C)NC(=O)CN(C(=O)C1CSC(=O)C1)c1ccc2c(c1)OCCO2 (centres unmarked)	0.677
CN(C)CCNC(=O)C(=O)NCC(c1ccc2c(c1)OCO2)N1CCN(c2ccc(F)cc2)CC1 (centres unmarked)	7.3
C/C(=N\Nc1nc(C)cc(-c2ccccc2)n1)c1ccc(O)cc1	7.27
Cc1ccc2oc(=O)n(CCOc3ccccc3Cl)c2c1	5.19
CCCCCC(=O)N1CC2(CC(c3cccc(NC(=O)c4ccccc4)c3)=NO2)C[C@@H]1C(N)=O (some centres unmarked)	-7
Cc1ccc(-c2nc3ncccc3o2)cc1NC(=O)c1ccco1	11.8
O=c1c2ccccc2cnn1-c1ccc(Cl)nn1	12.6
Nc1c(N(CCO)C(=O)C2CCCCC2)c(=O)[nH]c(=O)n1Cc1ccccc1	4.53
Cn1c(SCC(=O)N2CCOCC2)nc2cccnc21	5.9
COc1ccc(NC(=S)N(Cc2ccc(C)cc2)Cc2ccccn2)cc1	12.5
C=CCn1c(COc2cccc(C)c2)nnc1SC(C)C(=O)NC1CC1 (centres unmarked)	7.14
COc1cc(CCN2C(=O)c3cccc4cccc(c34)C2=O)c(S(=O)(=O)N2CCCCCC2)cc1OC	3.66
Cc1c(C(=O)N/N=C/c2ccc(O)cc2)sc(=S)n1C	3.62
CCOc1ccc(C(=O)NCCCN2CCCC2=O)cc1	-5.31
CCOc1ccc(-n2c(N)c(-c3nc4ccccc4n3C)c3nc4ccccc4nc32)cc1	9.72
O=C(c1ccc2c3c(cccc13)CC2)C1CCCN(Cc2ccccn2)C1 (centres unmarked)	13.3
COc1ccc(CN(CC(=O)NCc2ccco2)C(=O)CCC(=O)Nc2ccccn2)cc1	13.5

SMILES	hERG current change (%, negative = inhibition) at 1uM [%]
COc1ccc(N2CCOCC2)c(NC(=O)c2ccc(Br)o2)c1	6.18
CSc1nc2ccc(S(=O)(=O)NC3CCCCC3)cc2s1	0.616
COc1ccc(C(=O)NNC(=O)c2ccc(C(C)(C)C)cc2)cc1	8.21
Cc1nnc(SCC(=O)NC(=O)NC(C)(C)C)s1	12.5
N#CCSc1nnc(COc2ccc3ccccc3c2)o1	11.6
CCOP(=O)(c1ccc(N(C)C)cc1)C(O)c1ccc(C)cc1 (centres unmarked)	15
CCOc1ccc(C(=S)N2CCCC2)cc1	5.79
CC1(C)NC(=O)N(CCCSc2ccc(Cl)cc2)C1=O	-0.732
OCC[C@H]1C[C@H](O)[C@@H](O)[C@]2(Cc3ccccc3CO2)O1	14.4
C=CCN1C=C2C(=O)C(C)(OC(=O)C3CCCC3)C(=O)C=C2C=C1c1ccsc1 (centres unmarked)	14.2
C/C(Nc1ccc(F)cc1)=C(/C#N)C(N)=O	9.39
Cc1cc(C(=O)N/N=C/c2cccc([N+](=O)[O-])c2)c(C)n1-c1ccccc1	0.676
Cc1sc(NC(=O)c2ccc(OCC(C)C)cc2)c(C(N)=O)c1-c1ccc(Cl)cc1Cl	6.66
O=C(NC1CCCCC1)n1c(=O)oc2ccc(Cl)cc21	11.3
COc1ccc(NC(=O)COC(=O)c2cc(=O)c3ccccc3o2)cc1OC	3.69
CN(C)Cc1c(C#N)c2ccccc2n1C	8.82
O=C1c2ccccc2C(=O)N1CCc1nc(-c2ccc(Cl)cc2)no1	0.0102
CC(=O)COC(=O)CNC(=O)c1ccc(Br)cc1	4.38
Cc1ccc(NS(=O)(=O)c2c(C(=O)N3CCCCCC3)c(C)n(C)c2C)cc1C	18.3
O=C1NC2(CCCCCC2)C(=O)N1Cc1ccccc1F	10.5
CS(=O)(=O)c1ccc(C(=O)NCc2ccccc2F)cc1	8.38
CC(=O)Nc1cccc(C(=O)Nc2ccc(S(=O)(=O)N3CCCCC3)cc2)c1	3.07
CCOc1cnc(-c2c(-c3c(Cl)cccc3Cl)noc2C)o1	13.8

SMILES	hERG current change (%, negative = inhibition) at 1uM [%]
Cc1cc(NC(=O)c2ccc3c(c2)C(=O)N(C(C)(C)C)C3=O)no1	14.1
Cc1ccc(/C=c2\sc3n(c2=O)CN(c2ccc(Br)cc2)CN=3)o1	11
O=C(Cn1nnc(-c2ccccc2Cl)n1)N/N=C/c1ccc2c(c1)OCO2	12.5
CC1(c2ccncc2)Nc2ccccc2-c2nc3ccccc3n21 (centres unmarked)	12.4
Cc1cc(C(=O)NC(C)C2CCCO2)no1 (centres unmarked)	3.38
COC(=O)[C@@]12CCCCN1[C@H](c1ccc(-c3cc(C(C)=O)cs3)c(OC)c1)[C@H]1C(=O)N(C)C(=O)[C@H]12.O=C(O)C(F)(F)F	11.5
CC(=O)Nc1ccc(NC(=S)NC(=O)/C=C/c2ccc(Cl)cc2)cc1	13.1
COc1ccc(-c2nnn(CC(=O)N(CCO)C(C(=O)NC3CCCC3)c3ccc(F)cc3)n2)cc1 (centres unmarked)	5.42
Cc1ccc(NC(=O)C2CCN(S(=O)(=O)c3cnc[nH]3)CC2)cc1C	0.679
COc1ccccc1N1CCN(C(=O)c2ccc(S(=O)(=O)N3CCCCCC3)cc2)CC1	0.821
O=C(Nc1ccc2c(c1)OCO2)c1nn(-c2ccccc2)c(=O)c2ccccc12	10.5
COc1cccc(CNC(=O)c2cc3ccccn3n2)c1	3.09
CCCCNc1ncnc2c1nnn2Cc1ccccc1Cl	10.7
CCOC(=O)C(C)Sc1nc(=O)n2ccccc2n1 (centres unmarked)	10
CCCCS(=O)(=O)Nc1ccc(Cc2ccncc2)cc1	1.54
O=C(N/N=C/c1ccc(OC(=O)c2ccc3c(c2)OCO3)cc1)c1cncc(Br)c1	4.17
N/C(CC(=O)Nc1ccc(F)c(Cl)c1)=N\OC(=O)c1cccs1	13.8
Cc1cccc(NCC(=O)N/N=C\c2c[nH]c3ccccc23)c1	-3.49
O=C(NC(=O)c1ccc(F)cc1F)Nc1ccc(Cl)cc1	16.3
CCCCC(=O)Nc1ccc(NC(=O)c2ccccc2[N+](=O)[O-])cc1OC	-6.04
CCc1c(C2(O)CCCCC2)[nH]c2ccc(C(=O)OC)cc12	13.4
COC(=O)C(C)NC(=S)N1CC2C[C@@H](C1)Cn1c2cccc1=O (some centres unmarked)	15.6
COc1ccc(CCNC(=O)C2CCCN(S(=O)(=O)c3ccc(F)cc3)C2)cc1OC (centres unmarked)	9.16

SMILES	hERG current change (%, negative = inhibition) at 1uM [%]
O=C1CCC(C(=O)Nc2ccc(Cl)cc2)N1 (centres unmarked)	17.8
CC(=O)N/C(=C\c1ccccc1)C(=O)OCC(=O)NC(=O)c1ccccc1	6.41
O=C(Nc1ccc2c(c1)C(=O)NC2=O)c1ccc(Cl)s1	12.3
CNC(=O)c1sc(-c2cccnc2)nc1C	-24.6
Cn1c2c(c(=O)c3ccccc31)CCCC2	10.6
COCCCNC(=O)CN(c1ccc(OC)cc1)S(=O)(=O)c1ccc(NC(C)=O)cc1	13.1
CCCN1CCC(NC(=O)Cc2ccc(C)cc2)CC1	7.64
CCCCc1cc(C(=O)Cc2ccccn2)c(O)cc1O	13.1
CCOc1ccc(Nc2nc(Cc3nnc(SCC(N)=O)o3)cs2)cc1	3.2
O=S1(=O)CC(O)C(NCCO)C1 (centres unmarked)	6.22
CCc1cccc(C)c1NC(=O)C1CC(=O)N(C2CCCC2)C1 (centres unmarked)	-0.876
COc1cccc(C2C(C(=O)OC(C)C)=C(C)N=c3s/c(=C\c4ccc(C(=O)O)cc4)c(=O)n32)c1 (centres unmarked)	2.45
Cc1ccc2cc3c(NC(=O)C(C)C)nn(C)c3nc2c1	-0.639
COc1cc([N+](=O)[O-])ccc1NC(=O)NCc1ccccn1	11.8
CCN1C(=O)C2(SC(NC(C)=O)=NN2C(C)=O)c2cc(C)ccc21 (centres unmarked)	-0.937
COc1ccc(C(=O)/C(C#N)=N/Nc2ccc([N+](=O)[O-])cc2)cc1	12.6
N#Cc1ccc(N2CCN(C(=O)c3cccs3)CC2)c(F)c1	-21.1
CCCc1cc(=O)oc2cc(C)cc(OC(C)C(=O)NCc3cccnc3)c12 (centres unmarked)	-5.76
COc1cc(C2/C(=C(\O)c3ccc4c(c3)CC(C)O4)C(=O)C(=O)N2CCCn2ccnc2)cc(OC)c1OC (centres unmarked)	21.3
Cc1ccc(C)c(OC(=O)c2cccnc2Cl)c1C	12.1
